The whole screen tested about 270,000 compounds, of which about 620 (0.23%) were called active. The inconclusive results got no clear call from the source; some entries with a clear call stand among them for comparison. The call rests on the fitted dose curve; in most records, active means well fitted inhibition curve with a large enough effect in the polarisation, with a control signal flat (not every such curve was filed as active); inconclusive means small, poorly fitted or top-dose-only effect, or effect the other way, or a change in a side signal; inactive means no such curve, though single readings can be large or run the other way; the % refers to the polarisation. Potencies of inconclusive entries are doubtful fits and often do not repeat. “Side channel” marks fits to a control or component signal instead of the main read-out.
What follows are molecules tested against Menin (Homo sapiens) (UniProt O00255) (assay: qHTS Assay for Inhibitors Targeting the Menin-MLL Interaction in MLL Related Leukemias: Competition With Texas Red Labeled MLL-derived Mutant Peptide). Conditions: fluorescence polarization; FP activity change, negative = inhibition: at 61.6 µM (top of the series).
Chain of UniProt O00255 (O00255 whole entry, looked up): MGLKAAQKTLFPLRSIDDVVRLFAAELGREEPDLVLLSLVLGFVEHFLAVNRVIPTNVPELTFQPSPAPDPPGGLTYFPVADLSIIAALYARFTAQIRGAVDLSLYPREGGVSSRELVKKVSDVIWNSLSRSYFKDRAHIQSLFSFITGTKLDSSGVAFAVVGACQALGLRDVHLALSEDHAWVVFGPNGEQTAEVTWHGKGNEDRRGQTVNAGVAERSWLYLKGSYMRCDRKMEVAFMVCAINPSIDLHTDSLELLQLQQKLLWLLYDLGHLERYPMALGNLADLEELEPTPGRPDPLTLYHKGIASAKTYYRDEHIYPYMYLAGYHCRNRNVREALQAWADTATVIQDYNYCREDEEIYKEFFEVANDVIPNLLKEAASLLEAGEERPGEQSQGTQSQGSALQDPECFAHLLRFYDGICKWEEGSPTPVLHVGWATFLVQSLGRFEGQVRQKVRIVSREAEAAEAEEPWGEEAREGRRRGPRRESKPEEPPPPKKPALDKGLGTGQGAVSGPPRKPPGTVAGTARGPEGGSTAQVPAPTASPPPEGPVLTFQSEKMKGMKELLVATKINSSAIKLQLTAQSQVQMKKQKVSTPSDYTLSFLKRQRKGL
For `CCN(CC)CC#CCOC(=O)C(O)(c1ccccc1)C1CCCCC1` (stereo unspecified), the Potency was inconclusive: 12.6 µM [fluorescent, side channel, partial curve].
`CC1(C(=O)OCC(=O)c2c[nH]c3ccccc23)CC1(Cl)Cl` (stereo unspecified) was tested, and the Potency was inconclusive: 11.2 µM [quencher, side channel, partial curve].
With `COc1ccc(-c2nn(-c3ccccc3)cc2/C=N/Nc2cccc(C(=O)O)c2)cc1` the Potency was inconclusive: 14.1 µM [quencher, side channel, partial curve].
With `Cn1ccnc1Sc1ccc(C(N)=O)cc1[N+](=O)[O-]` the “FP activity change, negative = inhibition” value was inactive: 0.238%.
In the case of `CN1CCN(C(=S)NC(=O)/C=C/c2ccccc2Cl)CC1`, the Potency is reported as inconclusive: 28.2 µM [quencher, side channel, partial curve].
With `O=C1S/C(=C\c2ccc(N3CCOCC3)o2)C(=O)N1c1ccccc1` the Potency was inconclusive: 25.1 µM [quencher, side channel, single point].
For `CCCC/C=C/[C@H](c1ccccc1)[C@H](CO)Cc1cnc2ccccc2c1`, the Potency was inconclusive: 22.4 µM [inhibitor, single point].
For `COc1ccc(NC(=O)CSc2nnc(-c3ccccc3Cl)n2Cc2ccco2)c(OC)c1`, the Potency was inconclusive: 22.4 µM [quencher, side channel, single point].
In the case of `O=C(COC(=O)/C=C/c1ccccc1Cl)NC1CCCCCC1`, the Potency is reported as inconclusive: 14.1 µM [inhibitor, partial curve, poor fit].
In the case of `COc1ccc(S(=O)(=O)N2CCCC(C(=O)NCCN3CCOCC3)C2)cc1C` (stereo unspecified), the Potency is reported as inconclusive: 3.16 µM [inhibitor, partial curve].
For `COc1cccc(C(=O)NC2=NCCS2)c1OC`, the Potency was inconclusive: 8.91 µM [inhibitor, single point].
With `S=C(NCCSCc1ccc(Cl)cc1)Nc1ccccc1` the Potency was inconclusive: 17.8 µM [quencher, side channel, single point].
For `Cc1ccc(N=Nc2ccc(C)cc2NC(=O)Nc2ccccc2F)cc1`, the Potency was inconclusive: 5.01 µM [quencher, side channel, full curve, poor fit].
`CSCCC(NS(=O)(=O)c1ccc(Cl)cc1)C(=O)OCC(=O)N(C(C)C)C(C)C` (stereo unspecified) was tested, and the Potency was inconclusive: 10 µM [fluorescent, side channel, partial curve].
In the case of `COc1ccc(CCN2CCC(Nc3nc4ccccc4n3Cc3ccc(F)cc3)CC2)cc1`, the Potency is reported as inconclusive: 3.16 µM [fluorescent, side channel, full curve].
With `CC(=O)Nc1cc(OC(C)=O)c2nonc2c1OC(C)=O` the Potency was inconclusive: 7.08 µM [quencher, side channel, partial curve].
`COC(=O)COc1ccc(NC(=O)Cn2nc(-c3ccccc3)c3ccccc3c2=O)cc1` was tested, and the “FP activity change, negative = inhibition” value was inactive: -12.2%.
For `CCN(CC)S(=O)(=O)c1cccc2cc(C(=O)O)c(O)cc12`, the Potency was inconclusive: 10 µM [quencher, side channel, partial curve].
`COc1cc(OC)cc(C(=O)Nc2nnc(NC(=S)Nc3ccccc3)s2)c1` was tested, and the Potency was inconclusive: 3.16 µM [quencher, side channel, full curve].
In the case of `O=C(c1cc(-c2ccc(Cl)cc2)n(-c2ccc(Cl)cc2)n1)N1CCOCC1`, the Potency is reported as inconclusive: 11.2 µM [fluorescent, side channel, partial curve].
For `NS(=O)(=O)c1ccc(N/N=C/c2cn(-c3ccccc3)nc2-c2cccs2)c([N+](=O)[O-])c1`, the Potency was inconclusive: 5.01 µM [quencher, side channel, partial curve].
In the case of `Cc1cc2c(N=O)c(NO)ccc2[nH]1`, the “FP activity change, negative = inhibition” value is reported as inactive: 39.4%.
For `Cc1nc2cc(NC(=O)CCS(=O)(=O)c3ccccc3)ccc2s1`, the “FP activity change, negative = inhibition” value was inactive: -13.6%.
With `CS(=O)(=O)Nc1cccc(-c2ccc3ncnc(Nc4ccccc4)c3c2)c1` the Potency was inconclusive: 20 µM [quencher, side channel, single point].
For `CCC(C)NC(=O)CSc1nc2n[nH]c(C)c2c(=N)n1-c1ccc(OC)cc1` (stereo unspecified), the Potency was inconclusive: 8.91 µM [fluorescent, side channel, partial curve, poor fit].
`COc1cccc2cc(C(=O)NCCc3ccccc3)c(=O)oc12` was tested, and the Potency was inconclusive: 39.8 µM [fluorescent, side channel, single point].
With `COc1ccc(S(=O)(=O)NCC(=O)N(CC(=O)NCC2CCCO2)c2c(C)cccc2C)cc1` (stereo unspecified) the Potency was inconclusive: 35.5 µM [fluorescent, side channel, single point].
With `CC(=O)N1CCc2c(sc(NC(=O)Cc3ccc(C)cc3C)c2C#N)C1` the Potency was inconclusive: 35.5 µM [fluorescent, side channel, single point].
With `O=C(O)c1[nH]c2ccccc2c1C(c1ccccc1)c1c(C(=O)O)[nH]c2ccccc12` the Potency was inconclusive: 20 µM [quencher, side channel, partial curve].
`COc1ccc(C2NC(=S)NC(C)=C2C(=O)N2CCOCC2)cc1` (stereo unspecified) was tested, and the “FP activity change, negative = inhibition” value was inactive: 1.52%.
For `C/C(=N\N=C\c1ccccc1)c1nnn(-c2nonc2N)c1C`, the Potency was inconclusive: 39.8 µM [inhibitor, single point].
`O=C(Nc1cccc(S(=O)(=O)N2CCCC2)c1)c1ccc2ccccc2n1` was tested, and the Potency was inconclusive: 14.1 µM [quencher, side channel, partial curve].
For `Cc1cccc(-n2c(=S)[nH]c3sc4c(c3c2=O)CCc2ccccc2-4)c1`, the Potency was inconclusive: 3.16 µM [quencher, side channel, partial curve].
`CC(C)c1ccc(OCC(=O)NC(Cc2c[nH]c3ccccc23)C(=O)O)cc1` (stereo unspecified) was tested, and the Potency was inconclusive: 22.4 µM [quencher, side channel, single point].
In the case of `O=C(Cn1cc(C(F)(F)F)cc(Cl)c1=O)Nc1cc(Cl)cc(Cl)c1`, the Potency is reported as inconclusive: 20 µM [inhibitor, partial curve, poor fit].
For `CCCn1c(NCc2cc(C)ccc2O)nc2ccccc21`, the Potency was inconclusive: 39.8 µM [quencher, side channel, single point].
`COC(=O)c1ccc(-c2nc(CN3CCN(Cc4cccc(C)c4)CC3)c(C)o2)cc1` was tested, and the Potency was inconclusive: 7.08 µM [fluorescent, side channel, partial curve].
In the case of `C=CCn1c(NC(=O)c2ccc(C)cc2)c(C#N)sc1=N`, the Potency is reported as inconclusive: 25.1 µM [quencher, side channel, partial curve].
For `O=C(Nc1ccc(S(=O)(=O)N2CCc3ccccc32)cc1)c1ccc2c(c1)OCO2`, the Potency was inconclusive: 10 µM [quencher, side channel, partial curve].
`Cc1ccc(N(CC(=O)Nc2ccc(-c3nc4ccc(C)cc4s3)cc2)S(C)(=O)=O)cc1` was tested, and the Potency was inconclusive: 20 µM [quencher, side channel, single point].
`CCN(CC)S(=O)(=O)c1ccc(N2CCN(c3ccccc3OC)CC2)c(N)c1` was tested, and the Potency was inconclusive: 39.8 µM [quencher, side channel, single point].
With `O=C(NCCCl)c1ccc(OCc2ccccc2)cc1Cl` the Potency was inconclusive: 7.94 µM [fluorescent, side channel, partial curve, poor fit].
With `CCOCC(=O)NCc1ccc2c(c1)cc(C)n2C` the Potency was inconclusive: 39.8 µM [inhibitor, single point].
In the case of `O=c1c(-c2cccs2)nc2cnc(Oc3ccccc3)nc2n1C1CC1`, the “FP activity change, negative = inhibition” value is reported as inactive: 3.14%.
`Cc1cc(C)nc(/N=C(\N)Nc2ccc(-c3ccccc3)cc2)n1` was tested, and the Potency was inconclusive: 2 µM [fluorescent, side channel, full curve].
For `CC1=CC2=NC(=O)/C(=C\c3cccn3CCOc3ccccc3C)C(=N)N2O1`, the Potency was inconclusive: 15.8 µM [quencher, side channel, partial curve].
In the case of `CCOC(=O)c1c(C)n(-c2ccc(C)cc2)c2c(C(C(C)=O)C(=O)O)c(Br)c(O)c(O)c12` (stereo unspecified), the Potency is reported as inconclusive: 28.2 µM [quencher, side channel, single point].
For `O=[N+]([O-])c1ccc(NCCNS(=O)(=O)c2ccccc2)cc1`, the Potency was inconclusive: 28.2 µM [quencher, side channel, partial curve].
For `O=C(c1cc2ccccc2oc1=O)N1CCN(c2ccc(N3CCOCC3)nn2)CC1`, the “FP activity change, negative = inhibition” value was inactive: 0.586%.
`COc1ccc2[nH]c(C(=O)O)c(NS(=O)(=O)c3ccc(Cl)s3)c2c1` was tested, and the Potency was inconclusive: 14.1 µM [quencher, side channel, partial curve].
In the case of `CCCCn1c(-c2ccccc2C)nc2cc3[nH]c(=O)c(C(C)C)nc3cc21`, the Potency is reported as inconclusive: 11.2 µM [inhibitor, partial curve].
With `COC(=O)c1ccc(C(=O)OC)c(NC(=S)N2CCCC(CO)C2)c1` (stereo unspecified) the Potency was inconclusive: 12.6 µM [inhibitor, partial curve].
For `O=C(N/N=C/c1c(O)n(-c2ccccc2Cl)c(=O)c2ccccc12)c1cccnc1`, the Potency was inconclusive: 14.1 µM [quencher, side channel, partial curve].
In the case of `CCOC(=O)Cc1csc(NC(=O)COc2ccc3c(C)cc(=O)oc3c2)n1`, the Potency is reported as inconclusive: 28.2 µM [quencher, side channel, single point].
`CC12CCC(C/C1=N/NC(=O)COc1ccccc1Cl)C2(C)C` (stereo unspecified) was tested, and the Potency was inconclusive: 2.51 µM [fluorescent, side channel, full curve, poor fit].
With `COc1ccc2cc(C(=O)/C=C/c3cc(OC)c(OC)c(OC)c3)ccc2c1` the Potency was inconclusive: 35.5 µM [fluorescent, side channel, single point].

Reference: PubChem BioAssay AID1768 (National Center for Advancing Translational Sciences (NCATS), 2009)
Potency means the concentration at half of the fitted maximal effect; tags describe the fitted curve by direction and shape or compound fluorescence and quenching.
Wherever FP activity change, negative = inhibition is given: % of control where 0% means no effect.
